Source: the supplement of paper PMC7826260
This is one part of the list. One pool of 16,384 single-stranded DNAs met each Rep nickase domain in vitro (3 µM enzyme, 1 h, 37 °C); shown is the middle of each 90-letter strand. Uncut reads are compared with the no-enzyme pool on a log2 scale; more negative means more cut, near 0 not cut, and no call is made. Because reads are shares of a total, they shift together; uncut strands gain when others are lost, and binding without cutting may add a little.

system: T1, Rep nickase domain of cabbage leaf curl virus; assay: uncleaved DNA left, log2 of reads against the no-enzyme library (log2 ratio); higher = less cleavage (more negative = more Rep cleavage of the k-mer); sequences stand for … in CTCGTCCG…ACCGGAGA
T1 sequence (protein, residues 1-116, tag omitted): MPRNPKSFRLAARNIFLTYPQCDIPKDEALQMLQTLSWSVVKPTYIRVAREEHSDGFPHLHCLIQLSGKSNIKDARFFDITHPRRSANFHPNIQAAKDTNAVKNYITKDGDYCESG
Procedure: (§1)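 A pool of 90-nt single-stranded DNAs with seven random bases just before the constant AC of the nick site (name = the seven bases) was cut by 3 µM recombinant His6-SUMO-tagged Rep nickase domain (300 nM DNA, 50 mM HEPES pH 8.0, 50 mM NaCl, 1 mM MnCl2, 1 h, 37 °C, three replicates). Uncut DNA was amplified and sequenced.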

| Sequence | uncleaved DNA left (log2) |
| --- | --- |
| GGTATCG | -0.537 |
| CGAGTAG | -0.321 |
| TCGTTCT | -0.229 |
| TGAATAC | 0.339 |
| CCAATTG | -0.512 |
| ATCAGTG | -0.705 |
| TTGCGGA | -0.583 |
| TTGTCAG | -0.635 |
| AGGGCTA | 0.271 |
| TAGCGGT | -0.116 |
| ATGTGTT | -0.401 |
| CCTGAAA | 0.0394 |
| TTTCTCT | 0.103 |
| GGTCTCC | -0.116 |
| TGTAAGG | 0.387 |
| GCAGTCA | 0.0521 |
| AAGATAT | 0.32 |
| AGATTAT | 0.317 |
| GCAGTGC | -0.611 |
| GCGTCAC | 0.115 |

system: T2, Rep nickase domain of chickpea chlorotic dwarf virus; assay: as above
T2 sequence (protein, residues 1-124, tag omitted): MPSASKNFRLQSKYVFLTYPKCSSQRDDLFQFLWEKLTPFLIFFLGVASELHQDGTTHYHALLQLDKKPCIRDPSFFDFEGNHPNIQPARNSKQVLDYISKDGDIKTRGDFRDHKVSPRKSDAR
Procedure: as §1

| Sequence | uncleaved DNA left (log2) |
| --- | --- |
| AGGCAAC | 0.145 |
| TATATTT | -2.83 |
| TCTCGCG | 0.49 |
| GTGCCTA | 0.905 |
| GACACAG | -0.11 |
| TGTGACA | 1.11 |
| TCGTCGT | -0.76 |
| CCCATTC | -0.312 |
| TTTTATT | -3.45 |
| ATTAGAG | -0.462 |
| GTGGTCT | 1.05 |
| AGTATAT | -0.0799 |
| CGAGTCC | 0.095 |
| TCCAATT | -2.27 |
| AAGGCGA | -0.674 |
| TCAGAGT | 0.192 |
| TTGCTGG | -0.295 |
| TAGCTAT | -2.16 |
| TATAAGA | -0.622 |
| AGTGTGT | -0.202 |

| Sequence | uncleaved DNA left (log2) |
| --- | --- |
| GGTATCG | -0.412 |
| CGAGTAG | -0.158 |
| TCGTTCT | -1.98 |
| TGAATAC | 0.287 |
| CCAATTG | -0.517 |
| ATCAGTG | -0.673 |
| TTGCGGA | -0.555 |
| TTGTCAG | -0.0178 |
| AGGGCTA | 0.87 |
| TAGCGGT | -0.319 |
| ATGTGTT | -1.81 |
| CCTGAAA | 0.081 |
| TTTCTCT | -1.93 |
| GGTCTCC | 0.0367 |
| TGTAAGG | 1.18 |
| GCAGTCA | -0.417 |
| AAGATAT | 1.07 |
| AGATTAT | -0.165 |
| GCAGTGC | -0.285 |
| GCGTCAC | 0.509 |

system: T3, Rep nickase domain of faba bean necrotic yellows virus; assay: as above
T3 sequence (protein, residues 1-98, tag omitted): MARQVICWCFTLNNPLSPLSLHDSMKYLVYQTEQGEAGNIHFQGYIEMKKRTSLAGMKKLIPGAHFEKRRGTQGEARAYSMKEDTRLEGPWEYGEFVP
Procedure: as §1

| Sequence | uncleaved DNA left (log2) |
| --- | --- |
| AGGCAAC | 0.0463 |
| TATATTT | -0.0392 |
| TCTCGCG | 0.0922 |
| GTGCCTA | 0.0532 |
| GACACAG | 0.0359 |
| TGTGACA | -0.0516 |
| TCGTCGT | 0.0427 |
| CCCATTC | -0.0207 |
| TTTTATT | -0.38 |
| ATTAGAG | 0.0381 |
| GTGGTCT | -0.108 |
| AGTATAT | 0.125 |
| CGAGTCC | -0.0786 |
| TCCAATT | 0.0747 |
| AAGGCGA | 0.0909 |
| TCAGAGT | 0.169 |
| TTGCTGG | 0.0428 |
| TAGCTAT | -0.0221 |
| TATAAGA | -0.017 |
| AGTGTGT | -0.0201 |

| Sequence | uncleaved DNA left (log2) |
| --- | --- |
| GGTATCG | -0.0561 |
| CGAGTAG | -0.124 |
| TCGTTCT | -0.11 |
| TGAATAC | -0.129 |
| CCAATTG | -0.0858 |
| ATCAGTG | -0.000697 |
| TTGCGGA | 0.0628 |
| TTGTCAG | 0.142 |
| AGGGCTA | 0.122 |
| TAGCGGT | -0.206 |
| ATGTGTT | -2.06 |
| CCTGAAA | 0.116 |
| TTTCTCT | 0.0764 |
| GGTCTCC | 0.0455 |
| TGTAAGG | -0.0378 |
| GCAGTCA | -0.0115 |
| AAGATAT | -0.0751 |
| AGATTAT | 0.216 |
| GCAGTGC | 0.117 |
| GCGTCAC | 0.00798 |
